Source: publication PMC9911399, “Two distinct binding modes provide the RNA-binding protein RbFox with extraordinary sequence specificity”
Changes are numbered by the printed parent chain; changes in the protein carry UniProt numbers. The list shows a part of the results.

T1: RBFOX1 RRM (Homo sapiens, UniProt Q9NWB1 109-208)
T1 sequence: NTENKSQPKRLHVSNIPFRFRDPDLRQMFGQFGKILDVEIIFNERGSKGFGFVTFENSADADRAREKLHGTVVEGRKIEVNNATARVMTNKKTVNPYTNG

B1: GUCGGAA (DNA:RNA)
RNA: GGGAGACCGGAAUUCAGAUUGUCCGUCGGAAUUAAAUCCCGUCGUAGCCACCA
DNA 1: CAATCTGAATTCCGGTCTCCC
DNA 2: TGGTGGCTACGACGGGATT
B2: UUGGGGC (DNA:RNA)
RNA: B1 RNA with G25U, C27G, A30G, A31C
DNA 1: CAATCTGAATTCCGGTCTCCC
DNA 2: TGGTGGCTACGACGGGATT
B3: AGUAUCC (DNA:RNA)
RNA: GGGAGACCGGAAUUCAGAUUGUCCAGUAUCCUUAAAUCCCGUCGUAGCCACCA
DNA 1: CAATCTGAATTCCGGTCTCCC
DNA 2: TGGTGGCTACGACGGGATT
B4: AACCCUC (DNA:RNA)
RNA: B3 RNA with G26A, U27C, A28C, U29C, C30U
DNA 1: CAATCTGAATTCCGGTCTCCC
DNA 2: TGGTGGCTACGACGGGATT
B5: AGGGCUA (DNA:RNA)
RNA: B3 RNA with U27G, A28G, U29C, C30U, C31A
DNA 1: CAATCTGAATTCCGGTCTCCC
DNA 2: TGGTGGCTACGACGGGATT
B6: CAACAAA (DNA:RNA)
RNA: B1 RNA with G25C, U26A, C27A, G28C, G29A
DNA 1: CAATCTGAATTCCGGTCTCCC
DNA 2: TGGTGGCTACGACGGGATT
B7: UCAGCAU (DNA:RNA)
RNA: B1 RNA with G25U, U26C, C27A, G29C, A31U
DNA 1: CAATCTGAATTCCGGTCTCCC
DNA 2: TGGTGGCTACGACGGGATT
B8: UUACAGA (DNA:RNA)
RNA: B1 RNA with G25U, C27A, G28C, G29A, A30G
DNA 1: CAATCTGAATTCCGGTCTCCC
DNA 2: TGGTGGCTACGACGGGATT
B9: UAAGCGC (DNA:RNA)
RNA: B3 RNA with A25U, G26A, U27A, A28G, U29C, C30G
DNA 1: CAATCTGAATTCCGGTCTCCC
DNA 2: TGGTGGCTACGACGGGATT
B10: GUUCGGA (DNA:RNA)
RNA: B1 RNA with C27U, G28C, A30G
DNA 1: CAATCTGAATTCCGGTCTCCC
DNA 2: TGGTGGCTACGACGGGATT
B11: CAAAGGC (DNA:RNA)
RNA: B3 RNA with A25C, G26A, U27A, U29G, C30G
DNA 1: CAATCTGAATTCCGGTCTCCC
DNA 2: TGGTGGCTACGACGGGATT
B12: CAAAAGU (DNA:RNA)
RNA: B3 RNA with A25C, G26A, U27A, U29A, C30G, C31U
DNA 1: CAATCTGAATTCCGGTCTCCC
DNA 2: TGGTGGCTACGACGGGATT
B13: CGUCGCC (DNA:RNA)
RNA: B3 RNA with A25C, A28C, U29G
DNA 1: CAATCTGAATTCCGGTCTCCC
DNA 2: TGGTGGCTACGACGGGATT
B14: CAGUGGG (DNA:RNA)
RNA: B1 RNA with G25C, U26A, C27G, G28U, A30G, A31G
DNA 1: CAATCTGAATTCCGGTCTCCC
DNA 2: TGGTGGCTACGACGGGATT
B15: GCAGUAC (DNA:RNA)
RNA: B1 RNA with U26C, C27A, G29U, A31C
DNA 1: CAATCTGAATTCCGGTCTCCC
DNA 2: TGGTGGCTACGACGGGATT
B16: GGGCGUC (DNA:RNA)
RNA: B3 RNA with A25G, U27G, A28C, U29G, C30U
DNA 1: CAATCTGAATTCCGGTCTCCC
DNA 2: TGGTGGCTACGACGGGATT
B17: ACGACUC (DNA:RNA)
RNA: B3 RNA with G26C, U27G, U29C, C30U
DNA 1: CAATCTGAATTCCGGTCTCCC
DNA 2: TGGTGGCTACGACGGGATT
B18: AGUUAAG (DNA:RNA)
RNA: B3 RNA with A28U, U29A, C30A, C31G
DNA 1: CAATCTGAATTCCGGTCTCCC
DNA 2: TGGTGGCTACGACGGGATT
B19: UCUUGCA (DNA:RNA)
RNA: B3 RNA with A25U, G26C, A28U, U29G, C31A
DNA 1: CAATCTGAATTCCGGTCTCCC
DNA 2: TGGTGGCTACGACGGGATT
B20: AUGGCCG (DNA:RNA)
RNA: B3 RNA with G26U, U27G, A28G, U29C, C31G
DNA 1: CAATCTGAATTCCGGTCTCCC
DNA 2: TGGTGGCTACGACGGGATT
B21: GGUAGGG (DNA:RNA)
RNA: B3 RNA with A25G, U29G, C30G, C31G
DNA 1: CAATCTGAATTCCGGTCTCCC
DNA 2: TGGTGGCTACGACGGGATT
B22: AUUCUCG (DNA:RNA)
RNA: B3 RNA with G26U, A28C, C31G
DNA 1: CAATCTGAATTCCGGTCTCCC
DNA 2: TGGTGGCTACGACGGGATT
B23: UCCGUGC (DNA:RNA)
RNA: B3 RNA with A25U, G26C, U27C, A28G, C30G
DNA 1: CAATCTGAATTCCGGTCTCCC
DNA 2: TGGTGGCTACGACGGGATT
B24: GAUAGAA (DNA:RNA)
RNA: B1 RNA with U26A, C27U, G28A
DNA 1: CAATCTGAATTCCGGTCTCCC
DNA 2: TGGTGGCTACGACGGGATT
B25: GAUCAGC (DNA:RNA)
RNA: B3 RNA with A25G, G26A, A28C, U29A, C30G
DNA 1: CAATCTGAATTCCGGTCTCCC
DNA 2: TGGTGGCTACGACGGGATT
B26: UGGAAAC (DNA:RNA)
RNA: B3 RNA with A25U, U27G, U29A, C30A
DNA 1: CAATCTGAATTCCGGTCTCCC
DNA 2: TGGTGGCTACGACGGGATT
B27: UGGUUAA (DNA:RNA)
RNA: B3 RNA with A25U, U27G, A28U, C30A, C31A
DNA 1: CAATCTGAATTCCGGTCTCCC
DNA 2: TGGTGGCTACGACGGGATT
B28: AUGGUGU (DNA:RNA)
RNA: B3 RNA with G26U, U27G, A28G, C30G, C31U
DNA 1: CAATCTGAATTCCGGTCTCCC
DNA 2: TGGTGGCTACGACGGGATT
B29: AUGGACA (DNA:RNA)
RNA: B1 RNA with G25A, C27G, G29A, A30C
DNA 1: CAATCTGAATTCCGGTCTCCC
DNA 2: TGGTGGCTACGACGGGATT
B30: CUAUGCU (DNA:RNA)
RNA: B1 RNA with G25C, C27A, G28U, A30C, A31U
DNA 1: CAATCTGAATTCCGGTCTCCC
DNA 2: TGGTGGCTACGACGGGATT
B31: CAAGGUU (DNA:RNA)
RNA: B1 RNA with G25C, U26A, C27A, A30U, A31U
DNA 1: CAATCTGAATTCCGGTCTCCC
DNA 2: TGGTGGCTACGACGGGATT

What follows are binders tested against T1, RBFOX1 RRM (assay: EMSA; HiTS-Eq, 1 nM pool, 10 min; buffer printed only for the single-RNA assays: 10 mM Tris pH 7.5, 150 mM NaCl, 3.4 mM EDTA, 0.001% NP-40, 30 C). Conditions: tags: His6 N-terminal (pET28a); label: 5' 32P.
Summary of the method: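 Purified RbFox RRM (wild type or mutant) was equilibrated for 10 min in 50 µL with 1 nM of a 5′-radiolabelled pool of RNA with 7 randomized nucleotides, its flanks annealed to DNA oligonucleotides, across increasing protein concentrations. Free RNA was separated by 8% native PAGE, excised, reverse-transcribed, PCR-barcoded and sequenced on an Illumina HiSeq 2500. Relative association constants came from read-count changes of each variant against the control reaction, normalised to the cognate motif.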

Point of comparison: B25, binding signal 0.00735 KA relative to UGCAUGU. Against it:
- B1 — higher, 0.0105 KA relative to UGCAUGU
- B2 — higher, 0.0074 KA relative to UGCAUGU
- B3 — lower, 0.0066 KA relative to UGCAUGU
- B4 — lower, 0.000348 KA relative to UGCAUGU
- B5 — higher, 0.0182 KA relative to UGCAUGU
- B6 — lower, 0.0026 KA relative to UGCAUGU
- B7 — higher, 0.0104 KA relative to UGCAUGU
- B8 — lower, 0.00703 KA relative to UGCAUGU
- B9 — higher, 0.0104 KA relative to UGCAUGU
- B10 — lower, 0.00644 KA relative to UGCAUGU
- B11 — lower, 0.00351 KA relative to UGCAUGU
- B12 — lower, 0.000757 KA relative to UGCAUGU
- B13 — higher, 0.01 KA relative to UGCAUGU
- B14 — lower, 0.0044 KA relative to UGCAUGU
- B15 — higher, 0.00875 KA relative to UGCAUGU
- B16 — higher, 0.0208 KA relative to UGCAUGU
- B17 — lower, 0.0029 KA relative to UGCAUGU
- B18 — lower, 0.0071 KA relative to UGCAUGU
- B19 — higher, 0.0204 KA relative to UGCAUGU
- B20 — higher, 0.0147 KA relative to UGCAUGU
- B21 — higher, 0.00958 KA relative to UGCAUGU
- B22 — higher, 0.00908 KA relative to UGCAUGU
- B23 — higher, 0.0168 KA relative to UGCAUGU
- B24 — higher, 0.0125 KA relative to UGCAUGU
- B26 — higher, 0.0149 KA relative to UGCAUGU
- B27 — higher, 0.00976 KA relative to UGCAUGU
- B28 — higher, 0.0152 KA relative to UGCAUGU
- B29 — lower, 0.00566 KA relative to UGCAUGU
- B30 — higher, 0.00888 KA relative to UGCAUGU
- B31 — lower, 0.00552 KA relative to UGCAUGU
